The full ranking holds about 33,000 sequences; the median of “E-score (-0.5 to 0.5)” is about -0.016, and the highest 2% start at about 0.31. The list shows a part of the results.
molecular target: Cst6 (UniProt P40535); assay: PBM E-score (8-mer binding enrichment) (E-score (-0.5 to 0.5)); higher = stronger / more preferred TF binding; most listed sequences are background and not binding sites; details: protein concentration: 200 nM; construct: GST-DNA-binding domain
In short: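 Yeast transcription factors, full-length or as DNA-binding domains, were expressed with a GST tag using PURExpress in vitro transcription/translation. At about 100-200 nM they were applied to universal all-10-mer Agilent arrays, double-stranded by primer extension on fresh or once-stripped slides. Fluorescent anti-GST detected bound protein, and masliner normalised the scans. E-scores for ungapped eight-base words, pooled with reverse complements, came from the Universal PBM Analysis Suite.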

Sequence | PBM E-score
CTACGCAG | -0.00198
CGTCTGGC | -0.143
AGTGGCTC | -0.12
CATCTGTA | -0.00016
AAGAACTA | 0.116
AGGTACAG | -0.186
CACCAACA | -0.111
TCGAGTCA | -0.0123
GATATTGA | 0.12
TAGAAACA | 0.13
GAATTTAA | 0.141
GTCGCCAA | -0.179
TCACAACA | 0.268
CTAGGACA | -0.161
ACAATACT | 0.197
AAGCTTCA | -0.185
CCTATAGG | -0.236
CACCGCCC | -0.0408
CTTGCTGA | -0.106
CGAGTGTA | -0.114
CGCGAGTC | -0.165
ACACGGAT | 0.162
GCAAACCC | -0.27
GTAAGGGA | 0.00326
AAACGGGT | -0.00178

Sequence | PBM E-score
CTTAATCA | 0.137
AACGTTGC | -0.0467
AGCAGCGA | 0.0103
ACGACATA | 0.257
GAAACGTA | 0.126
CCGAGGAC | -0.2
GAACAGCA | -0.101
ACAGTCGT | -0.105
GTGGCGAA | -0.00674
ATGACAAC | 0.302
GCTCAACA | 0.00967
AAGCGACT | -0.123
AAAATTCC | 0.129
CACGAAGC | 0.0577
ACTTGCCT | -0.0735
GTTTCCCA | -0.028
GATGCGAC | -0.0585
CGCGGCAC | 0.324
ACTTCGTC | 0.0738
AGTTCCGA | -0.142
GCATTTGA | 0.0785
ACGGGGTA | -0.165
CCGACTTC | -0.395
TGCATAAA | 0.173
GGTTGTCA | 0.0148

Sequence | PBM E-score
AGGACCTC | -0.264
AAGACTCT | -0.0379
GTGCGGCA | 0.311
ACAATAGC | -0.178
CCGTCTGA | 0.0102
CCGTTTGA | 0.0282
ACTTAAGA | 0.0825
CCGCTCAC | -0.0576
ACGTTGGG | -0.0248
ATCCTGCC | -0.201
GCTTACAC | -0.0479
GGAACAAC | -0.062
TCAGGAGA | 0.128
CCGTAACG | -0.0115
GAGGGAAC | -0.256
GAGGTAAA | 0.181
ACGGTATA | -0.0844
GGAGAGCC | -0.134
AACGTGTC | -0.0119
GCGCACTA | -0.0139
GCGCGCCC | -0.202
AAGTGAAA | 0.193
CTACAACA | -0.0236
ACTATTGC | 0.148
ATAGACGA | 0.0155

Sequence | PBM E-score
CCATGAAG | 0.0223
CTAGCCCA | -0.0917
AGTTCAGA | 0.0563
CGCTCACA | 0.00758
AGGACCTG | -0.353
ATCAGCTA | -0.0233
AGGATGTC | -0.0121
GAAACATA | 0.165
CGATGACA | 0.383
CTGGCGGA | -0.342
ATGATACG | 0.297
CTCTGGCC | -0.206
GTGACCAA | 0.0552
CATTTCTA | 0.111
AGAGTTGA | -0.0802
AGATTTCG | 0.178
TGTACCAA | 0.0216
ACCGGCCG | 0.01
GAACCCAC | -0.0399
GACGGGAA | -0.102
GAAGTCCC | -0.337
AGTTTAGA | 0.0573
AAACACGT | 0.179
CCTATAAG | -0.228
AGGTGGAA | -0.0392

Sequence | PBM E-score
ACAAGTCG | -0.227
ACAGATCC | 0.0419
AATCAATT | 0.248
AGGATACC | -0.251
AGGCACTA | -0.0201
AGCTAGCG | -0.155
ATACGTCC | 0.061
CAAGCAAC | 0.111
ACCGAAGA | 0.0703
CTCGGCAA | 0.0238
AATTCTAG | 0.0866
ATTGGCTA | -0.122
GTAACGTA | 0.302
CTTTATCC | -0.0303
GCAGACGC | -0.0713
AAGGGGTC | -0.164
GAGGTACA | -0.138
GCCTCCCC | -0.158
CTCGTCGA | -0.0115
AACTGAAT | -0.0699
CTATTCGC | 0.0102
GTAATCAA | 0.313
AACTATCT | 0.00607
CCCCCTGC | -0.425
AGTCCTGC | -0.188

Sequence | PBM E-score
CTGAGCAC | -0.235
CCATGACA | 0.271
CTGCTGGA | -0.116
ACCTATTA | 0.0751
ATAAACTC | 0.125
CAGTATCG | -0.113
ACAAGCCA | -0.163
ATTCATAA | 0.176
CCGCACAG | -0.00582
CGGCAAGC | -0.0498
CCCTGGCG | -0.238
CTCGTGCC | 0.0129
AGGCAATG | 0.185
AGGGTGAC | 0.345
GACCTTAA | -0.0362
CTATATCC | -0.0137
ATATCCTC | -0.0369
CGACATTC | -0.00214
AGAGTACT | -0.0636
CAACTTGG | 0.0766
AGGGTGAG | -0.176
CATCATAA | 0.291
AACGGCCC | -0.14
CCAGAAAA | 0.0994
CTAATGAC | 0.252

Sequence | PBM E-score
CCGTGGTA | -0.0264
CAGTAAAA | 0.104
ATCGTGAA | -0.0848
ACGGTATC | 0.0672
CCGATAGA | -0.124
CCTTTAGA | -0.0473
CAACAACG | 0.0911
AGAATAAA | 0.291
ACAGAGTG | -0.0722
AATGATAT | 0.322
GTGCCTAA | -0.00582
GACGGCTA | 0.0897
AGGGACAT | -0.181
TAAGAATA | 0.114
ATGCGTCG | 0.0508
CATGCCCG | -0.0136
GCAAAATA | 0.201
GCAATAGC | 0.0326
CGCAATGA | 0.0802
ATCAGTAA | 0.273
CTTCTTCA | 0.00766
GGTCGACC | -0.179
ACCTCCGC | -0.205
CAGACCAA | -0.154
CAAGGTTA | 0.0789

Sequence | PBM E-score
AATAATTG | 0.121
CAAGCACA | -0.161
CTTGTTCA | -0.043
ATAACGAA | 0.217
CCGTACGG | -0.193
ACAGTGGG | -0.222
AAAGTATA | 0.185
AACGGCGG | -0.102
CAACAGGG | -0.178
AGCGACCG | -0.0879
TCACAGCA | 0.181
GAATTAGC | 0.0469
GAGATCAC | 0.04
AAAGTAAT | 0.184
AGAAGTAC | -0.0811
TGCGCAAA | -0.0425
AACACACA | 0.133
GCGGTACC | -0.149
GTCGTGAA | -0.133
TGCCAGCA | -0.0744
ACTAGGAC | -0.239
AACTCTGA | 0.205
AGATCTTG | -0.0661
AACCAGAA | 0.0142
GAAAGTGA | 0.115

Sequence | PBM E-score
CTGAATTA | 0.131
CTGCTAGC | -0.265
AAATTACT | 0.222
AGCGCAAT | 0.0127
CCGACCAC | -0.191
GTGCACAA | -0.189
ATTGTCTG | 0.106
ATGGTCGG | -0.165
AGTACCGC | -0.0301
CAGAAAGC | 0.105
AAGTCCGT | -0.18
GGTTTAAA | 0.225
ACGTCGAA | 0.112
CAATATAG | 0.0707
CTGCACTA | 0.0693
AGGCATAA | -0.0546
GAAGTAGA | 0.0684
ACAAGCAT | 0.017
ATGCTGAC | 0.2
CGATGCTC | -0.239
TCACTGCA | 0.267
TAAACGGA | 0.089
AGCCACAG | -0.232
CCCCTACC | -0.178
ACAAAAAG | 0.162

Sequence | PBM E-score
CAATTCCA | -0.0303
CGTTATGC | 0.0991
CTTACTGA | -0.0696
ATCTACAC | 0.137
CCCGATAG | -0.284
ACTTTGTA | -0.0265
CGGCCTAC | -0.154
CAGCAAAC | 0
CCCTACTA | -0.198
GATATGTA | 0.222
CATTGAAG | -0.0928
TTAGCGAA | 0.0763
CGGCTCGC | 0.209
ACTTTTAT | 0.227
AATAAGAT | 0.232
TGGGTACA | -0.0378
TAGCGTGA | 0.0336
ATCATTTG | 0.165
GGGTAATA | 0.112
CGATACGA | -0.179
CCTACGCA | -0.124
CGTCTTCC | -0.0784
GCCATCAA | -0.169
TAACTTGA | 0.0256
AGCCTACT | -0.0568

Sequence | PBM E-score
ATCGTCCC | 0.0558
AACCTCGC | -0.106
CCCTCCAG | -0.29
GACCGAGA | -0.122
AAGCGTCG | -0.151
GTTGCCGA | 0.0213
AGGCAGCA | 0.0454
AAGGTGAT | 0.111
CGTGCCAG | -0.157
AATATAAT | 0.156
CCGACGAC | -0.0829
ACCACAAA | 0.168
CCTTAGAC | -0.0481
CTCCATTA | -0.0521
GTTACATA | 0.228
ACTTTGTG | 0.101
ACCAAATA | 0.198
CGCCACGA | -0.0813
GCCTGCAC | -0.19
ACGCGGGA | -0.0943
CGTCTACA | -0.134
AACGGATG | -0.0223
GTTCGGTA | -0.0154
TGGCCGAA | -0.0894
CTCTCATA | -0.0554

Sequence | PBM E-score
CGATGCTA | -0.105
CATGACAC | 0.328
CCAACATA | 0.181
CAAGTCTG | -0.0136
CCCTAAGC | -0.24
CGTGCGCA | 0.0679
CAGGGTGA | -0.0149
AGTCGCTC | -0.228
CAGCATTC | -0.0336
ATCTGAAC | -0.0107
ACTTCTGG | -0.0785
TCTCAGAA | 0.115
CAATGCGC | 0.151
TGGGAAAA | 0.0883
AAGCATTA | -0.0152
AATATTGA | 0.226
TCAAGTGA | 0.0697
CTACGGGC | -0.389
ACACCGTA | -0.059
ACTTCGCA | 0.0833
CCTCATCC | -0.272
CAGGTAGC | -0.216
TAATTGTA | 0.258
AGAACCTC | -0.158
CTGGGGAA | -0.246

Sequence | PBM E-score
ATCATCAC | 0.341
CCGTAGCG | -0.192
TAGTAGGA | -0.137
ACTAACAA | 0.133
TCCAACAA | 0.0654
GACGTATC | 0.294
CAATCTCG | -0.119
AAGGACGA | -0.192
ATGCTCCA | -0.141
GAATTCGC | 0.0432
CGACGCCG | 0.266
AAAAGAGG | -0.121
GCTTTGAC | 0.108
ACCGGGCC | -0.137
ACCGACAC | -0.0742
AGGTATAC | 0.0822
AGATGACT | 0.0398
AGGCCTCG | -0.301
AATATTCG | 0.133
GCAAACGC | 0.00191
CCCTACCC | -0.15
GACGTGCA | 0.197
CTGTGACA | 0.228
ATAGACGC | 0.0881
ATCAGGAA | 0.0251

Sequence | PBM E-score
CCGCTGCA | 0.0316
CTGCGAAG | -0.246
AACAGAGC | -0.0103
AACATCTG | -0.118
AGCCGAGA | -0.237
GGCACCCC | -0.185
CTGTCTTA | 0.0505
AGACACGG | 0.0103
ATGCCCCA | -0.0538
CGACTAGC | -0.168
CAAGGAGG | -0.0226
AGAATCCG | 0.0156
AATCTTCT | -0.0116
TCGGGAGA | -0.252
CCGAATAA | 0.17
CCACAAAG | 0.0903
ACCCACAT | -0.0953
GTACGCTA | -0.0951
ACAGAAGA | 0.173

Reference: the supplement of paper PMC3334620
